From PubChem BioAssay AID504332 (National Center for Advancing Translational Sciences (NCATS), 2011)
Among all 350,000 compounds or so, about 31,000 (8.9%) were called active. Inconclusive means that the source gave no clear call. Such entries were picked first, then a sample of the others. The call rests on the fitted dose curve; in most records, active means well fitted inhibition curve with a large enough effect; inconclusive means small, poorly fitted or top-dose-only effect; inactive means no such curve, though single readings can be large or run the other way. Potencies beside an inconclusive call are fits to weak or partial responses and may not hold up.

Target: Histone-lysine N-methyltransferase EHMT2 (Homo sapiens) (UniProt Q96KQ7)
Assay: qHTS Assay for Inhibitors of Histone Lysine Methyltransferase G9a; further: nearly all actives have a fitted effect of over 75% in size
Settings: G9a H3K9 monomethylation, AlphaScreen, 2 h; activity, negative = inhibition: at 59 µM (top of the series) unless noted
Summary of the method: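 Compounds were preincubated with 20 nM G9a for 15 min, after which biotinylated H3K9 peptide (500 nM) and SAM (20 uM) started a 2 h room-temperature reaction. Monomethylated product was quantified by antibody-based AlphaScreen chemiluminescence.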
On the % scale 0 is the no-effect control and ±100 the full control effect; potency means the concentration at half of the fitted maximal effect; tags describe the fitted curve by direction and shape.

Sequence of UniProt Q96KQ7 (Q96KQ7 whole entry, looked up): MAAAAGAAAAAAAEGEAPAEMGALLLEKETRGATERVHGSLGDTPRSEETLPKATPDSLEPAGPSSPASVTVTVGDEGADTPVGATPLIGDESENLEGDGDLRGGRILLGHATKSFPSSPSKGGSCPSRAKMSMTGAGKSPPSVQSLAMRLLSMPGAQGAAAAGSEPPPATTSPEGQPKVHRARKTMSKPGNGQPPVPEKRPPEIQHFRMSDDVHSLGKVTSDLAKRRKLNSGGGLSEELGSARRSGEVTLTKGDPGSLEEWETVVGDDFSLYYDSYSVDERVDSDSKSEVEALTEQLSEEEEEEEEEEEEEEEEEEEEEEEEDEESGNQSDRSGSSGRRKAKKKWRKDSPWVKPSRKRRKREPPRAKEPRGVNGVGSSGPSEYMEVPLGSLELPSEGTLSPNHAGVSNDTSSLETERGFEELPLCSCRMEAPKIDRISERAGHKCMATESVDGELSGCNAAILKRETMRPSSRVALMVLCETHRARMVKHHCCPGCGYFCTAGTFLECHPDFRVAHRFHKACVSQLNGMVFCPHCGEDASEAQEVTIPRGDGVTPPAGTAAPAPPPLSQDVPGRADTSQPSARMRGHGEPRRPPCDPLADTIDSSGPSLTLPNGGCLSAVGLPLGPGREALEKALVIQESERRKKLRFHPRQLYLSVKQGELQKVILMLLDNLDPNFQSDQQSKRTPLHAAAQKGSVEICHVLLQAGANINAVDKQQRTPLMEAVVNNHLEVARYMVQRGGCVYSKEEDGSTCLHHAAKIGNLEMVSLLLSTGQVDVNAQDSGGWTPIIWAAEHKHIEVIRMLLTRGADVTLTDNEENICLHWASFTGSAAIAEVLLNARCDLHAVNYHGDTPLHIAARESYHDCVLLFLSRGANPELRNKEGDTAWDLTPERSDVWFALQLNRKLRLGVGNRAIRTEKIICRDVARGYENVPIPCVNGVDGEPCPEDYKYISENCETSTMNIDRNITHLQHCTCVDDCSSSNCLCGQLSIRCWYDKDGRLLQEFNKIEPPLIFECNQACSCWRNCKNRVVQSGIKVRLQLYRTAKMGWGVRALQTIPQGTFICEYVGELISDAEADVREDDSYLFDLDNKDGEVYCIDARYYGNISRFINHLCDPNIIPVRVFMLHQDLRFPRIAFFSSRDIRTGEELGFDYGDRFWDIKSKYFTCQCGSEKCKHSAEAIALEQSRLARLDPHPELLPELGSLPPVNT

Row | SMILES | activity, negative = inhibition | Potency
1 | Cc1nnc(-c2ccc(N3CCOCC3)c([N+](=O)[O-])c2)o1 | inactive: 20.1% [at 2.33 µM] | –
2 | Cc1ccc2nc(SCC3CCCCO3)[nH]c2c1 (stereo not given) | – | inconclusive: 89.1 µM [inhibitor, partial curve, poor fit]
3 | O=C(Nc1ccc(N2CCCCC2)cc1)c1ccccn1 | – | active: 44.7 µM
4 | CCC1CCCCN1C(=O)Nc1cccc(NC(=O)N2CCCCC2CC)c1 (stereo not given) | – | inconclusive: 2.51 µM [inhibitor, partial curve, poor fit]
5 | O=C(Nc1c(C(=O)N2CCN(c3ccccc3F)CC2)oc2ccccc12)c1cccc(F)c1 | inactive: -15.1% | –
6 | COc1ccc(C2=CC(c3cc(Br)ccc3F)n3c(nc4ccccc43)N2)cc1 (stereo not given) | – | inconclusive: 10 µM [inhibitor, partial curve]
7 | COc1ccc(NC(=O)CSCC(=O)N2c3ccccc3CCc3ccccc32)cc1 | – | inconclusive: 0.891 µM [inhibitor, full curve]
8 | CCN(CC(=O)Nc1cc(Cl)ccc1OC)CC(=O)NC1CCS(=O)(=O)C1 (stereo not given) | – | inconclusive: 3.55 µM [inhibitor, single point]
9 | COc1ccc(NS(=O)(=O)c2ccc3nc(COc4cccc5ccccc45)[nH]c3c2)cc1 | – | inconclusive: 31.6 µM [inhibitor, single point]
10 | Cc1cccc(CS(=O)(=O)c2ncc(Cl)c(C(=O)Nc3nnc(C(C)C)s3)n2)c1 | – | inconclusive: 28.2 µM [inhibitor, single point]
11 | C/C(=N/NC(=O)c1cc(C)[nH]n1)c1ccncc1 | – | inconclusive: 89.1 µM [inhibitor, single point]
12 | CCCCN(C(=O)c1nn(C)c(=O)c2ccccc12)c1c(N)n(CCC)c(=O)[nH]c1=O | inactive: -30.6% [at 12.7 µM] | –
13 | O=C(CS(=O)(=O)Cc1ccccc1)NCc1ccco1 | – | inconclusive: 39.8 µM [inhibitor, partial curve]
14 | O=C(Nc1cccc(S(=O)(=O)N2CCCC2)c1)c1ccc2c(c1)OCO2 | – | inconclusive: 0.708 µM [inhibitor, full curve, poor fit]
15 | COc1ccc(NC2CCN(C3CC(=O)N(c4ccc(F)c(Cl)c4)C3=O)CC2)cc1 (stereo not given) | – | inconclusive: 2 µM [inhibitor, partial curve, poor fit]
16 | CCc1cccc(NC(=O)c2ccc(Cn3c(=O)[nH]c4ccsc4c3=O)cc2)c1 | – | inconclusive: 89.1 µM [inhibitor, single point]
17 | CCOc1ccccc1CN(Cc1ccco1)S(=O)(=O)c1ccc(-n2cnnn2)c(OC)c1 | – | active: 8.91 µM
18 | O=C(CN1CCN(c2ccc(O)cc2)CC1)NC(=O)NCc1ccco1 | – | active: 7.94 µM
19 | COc1cc(C(C)=O)ccc1OCC(=O)Nc1ccc(Cl)c(S(=O)(=O)N2CCOCC2)c1 | – | inconclusive: 25.1 µM [inhibitor, partial curve, poor fit]
20 | COc1ccc(C(=O)/C=C/c2cn(CC(O)CN3CCc4ccccc43)c3ccccc23)cc1OC (stereo not given) | – | inconclusive: 15.8 µM [inhibitor, partial curve]

Row | SMILES | activity, negative = inhibition | Potency
21 | CC(C)C1COS(=O)(=O)NC1CC(=O)SC(C)(C)C (stereo not given) | – | inconclusive: 89.1 µM [inhibitor, single point]
22 | Cc1c(NC(=S)N/C(=N/S(=O)(=O)c2ccc(Cl)cc2)c2ccccc2)c(=O)n(-c2ccccc2)n1C | – | inconclusive: 89.1 µM [inhibitor, single point]
23 | COc1ccccc1S(=O)(=O)NCc1ccc(C(=O)NC2CCC(O)CC2)cc1 (stereo not given) | – | inconclusive: 1.12 µM [inhibitor, single point]
24 | COc1cc(/C=C2\SC(=S)N(CCC(=O)Nc3ccccn3)C2=O)cc(OC)c1OC | – | active: 7.94 µM
25 | Cc1nc2cc(CC(=O)O)ccc2o1 | inactive: 5.16% | –
26 | C[C@H](C(=O)O)c1cccc(Oc2ccccc2)c1 | inactive: 19.2% [at 21.5 µM] | –
27 | CCC(=O)Nc1ccc2c(c1)C(=O)c1ccccc1C2=O | – | inconclusive: 39.8 µM [inhibitor, partial curve, poor fit]
28 | COc1ccc(S(=O)(=O)N2CCC(C(=O)Nc3ccccc3C)CC2)c2cccnc12 | – | inconclusive: 4.47 µM [inhibitor, partial curve, poor fit]
29 | Nc1c(N(CCC2=CCCCC2)C(=O)CCCOc2ccccc2)c(=O)[nH]c(=O)n1Cc1ccccc1 | – | inconclusive: 79.4 µM [inhibitor, single point]
30 | C=C1C(=O)O[C@@H]2[C@H]1[C@@H](OC(=O)/C(C)=C/C)C/C(C)=C\C(=O)/C=C(\C)[C@@H]2O | – | inconclusive: 31.6 µM [inhibitor, single point]
31 | CC(=O)c1[nH]c(C)c(C(=O)N2CCCC(Nc3ccc(C(C)C)cc3)C2)c1C (stereo not given) | – | inconclusive: 56.2 µM [inhibitor, single point]
32 | O=[N+]([O-])c1cc2c(cc1CN1CCN(c3ccc(F)cc3)CC1)OCO2 | – | active: 44.7 µM
33 | Cc1ccnc(SCc2cc(=O)c(OC(=O)c3ccc(Cl)c([N+](=O)[O-])c3)co2)n1 | – | inconclusive: 15.8 µM [inhibitor, partial curve, poor fit]
34 | Cc1ccc(-n2c(C)cc(C(=O)OCC(=O)N(CC(C)C)C3CCS(=O)(=O)C3)c2C)cc1 (stereo not given) | – | inconclusive: 39.8 µM [inhibitor, single point]
35 | Cc1ccc(C)c(S(=O)(=O)N2CCN(Cc3cc4c(cc3O)OCO4)CC2)c1 | – | active: 1.41 µM
36 | COc1cccc(CNS(=O)(=O)c2cnc(N)nc2)c1 | inactive: -36.3% | –
37 | CC(=O)c1c(C)n(CCc2ccc(Cl)cc2)c2ccc(O)cc12 | – | inconclusive: 100 µM [inhibitor, single point]
38 | COc1ccc(CCNC(=O)c2ccc3c(c2)N(Cc2ccc(F)cc2)C(=O)c2ccccc2S3(=O)=O)cc1OC | inactive: -11.8% | –
39 | O=C(O)CC(NC(=O)c1ccncc1)c1ccccc1 (stereo not given) | – | inconclusive: 89.1 µM [inhibitor, partial curve, poor fit]
40 | C=CCc1cccc2cc(-c3nc4ccc(C)cc4[nH]3)c(=O)oc12 | – | inconclusive: 0.794 µM [inhibitor, partial curve, poor fit]
